In the supplement of paper PMC12217912:
This is one part of the list. The full chains were built here from the parent and the listed change. Inactive controls read about 0.05.

B1: TEV protease; numbered along this chain (parent)
chain: MGESLFKGPRDYNPISSSICHLTNESDGHTTSLYGIGFGPFIITNKHLFRRNNGTLVVQSLHGVFKVKDTTTLQQHLVDGRDMIIIRMPKDFPPFPQKLKFREPQREERICLVTTNFQTKSMSSMVSDTSCTFPSGDGIFWKHWIQTKDGQCGSPLVSTRDGFIVGIHSASNFTNTNNYFTSVPKNFMELLTNQEAQQWVSGWRLNADSVLWGGHKVFMVKPEEPFQPVKEATQL

Variants of: B1
Experiment: raw area under fraction-flipped curve 0-4 h after induction (AUC4h, not background-subtracted), DNA-recorder readout of cleavage of the substrate (dimensionless); higher = more cleavage of the substrate by the protease variant
Details: temperature: 34 °C; time window: 0-4 h after rhamnose induction
Procedure: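 In vivo DNA recorder in E. coli TOP10(DE3) ΔrhaA at 34 °C. Each TEVp single-site mutant (parent TEVp 0) is paired with a single-site variant of the 7-mer TEVs (canonical ENLYFQ|S). The substrate sits between flexible linkers in a Bxb1-sfGFP-TEVs-SsrA fusion, so cleavage stabilises Bxb1 and speeds flipping of a recombination array, read by NGS. The value is the raw area under the fraction-flipped curve over 0-4 h after rhamnose induction (AUC4h), with ≥20 reads per time point. It is not background-subtracted; inactive controls average about 0.047.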
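Also: Bxb1 expression induced with 0.2% (w/v) L-rhamnose at OD600 near 0.5, cultures sampled hourly, flipped fraction per protease–substrate barcode pair counted by paired-end Illumina sequencing.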

Variant	area with substrate ENLYAQS	area with substrate ENLYCQS	area with substrate ENLYEQS	area with substrate ENLYGQS	area with substrate ENLYHQS	area with substrate ENLYIQS	area with substrate ENLYKQS	area with substrate ENLYMQS	area with substrate ENLYNQS	area with substrate ENLYPQS	area with substrate ENLYQQS	area with substrate ENLYRQS	area with substrate ENLYSQS	area with substrate ENLYTQS	area with substrate ENLYVQS	area with substrate ENLYWQS	area with substrate ENLYYQS	area with substrate ENLYDQS	area with substrate ENLYLQS
MGESLFKGPRDYNPISSSICHLTNESDGHTTSLYGIGFGPFIITNKHLFRRNNGTLVVQSLHGVFKVKDTTTLQQHLVDGRDMIIIRMPKDFPPFPQKLKFREPQREERICLVTTNFQTKSMSSMVSDTSCTFPSGDGIFWKHWIQTKDGQCGSPLVSTRDGFIVGIHSASNFTNTNNYFTSVPKNFMELLTNQEAQQWVSGWRLNADSVLWGGHKVFMVFPEEPFQPVKEATQL [K221F]	0.0773	0.113	0.0527	0.0632	0.0583	0.0979	0.0594	0.0705	0.0673	0.085	0.0546	0.0423	0.0606	0.0735	0.101	0.0651	0.0664		
MGESLFKGPRDYNPISSSICHLTNESDGHTTSLYGIGFGPFIITNKHLFRRNNGTLVVQSLHGVFKVKDTTTLQQHLVDGRDMIIIRMPKDFPPFPQKLKFREPQREERICLVTTNFQTKSMSSMVSDTSCTFPSGDGIFWKHWIQTKDGQCGSPLVSTRDGFIVGIHSASNFTNTNNYFTSVPKNFMELLTNQEAQQWVSGWRLNADSVLWGGHKVFMVKDEEPFQPVKEATQL [P222D]	0.0764	0.126	0.0605	0.0551	0.0633	0.126	0.0529	0.0741	0.0694			0.0557		0.0666	0.114	0.071	0.0563	0.0805	
MGESLFKGPRDYNPISSSICHLTNESDGHTTSLYGIGFGPFIITNKHLFRRNNGTLVVQSLHGVFKVKDTTTLQQHLVDGRDMIIIRMPKDFPPFPQKLKFREPQREERICLVTTNFQTKSMSSMVSDTSCTFPSGDGIFWKHWIQTKDGQCGSPLVSTRDGFIVGIHSASNFTNTNNYFTSVPKNFMELLTNQEAQQWVSGWRLNADSVLWGGHKVFMVKFEEPFQPVKEATQL [P222F]	0.0752		0.0554	0.0537	0.0621	0.0855	0.064		0.0623	0.0661	0.0507	0.0707		0.0849		0.0592		0.0571	0.0562
MGESLFKGPRDYNPISSSICHLTNESDGHTTSLYGIGFGPFIITNKHLFRRNNGTLVVQSLHGVFKVKDTTTLQQHLVDGRDMIIIRMPKDFPPFPQKLKFREPQREERICLVTTNFQTKSMSSMVSDTSCTFPSGDGIFWKHWIQTKDGQCGSPLVSTRDGFIVGIHSASNFTNTNNYFTSVPKNFMELLTNQEAQQWVSGWRLNADSVLWGGHKVFMVKPKEPFQPVKEATQL [E223K]	0.0899		0.0601	0.0708	0.0691	0.107	0.0515	0.0807	0.0767	0.0652	0.0675	0.0655	0.0676	0.0711	0.135	0.0844	0.0514	0.0673	0.1
MGESLFKGPRDYNPISSSICHLTNESDGHTTSLYGIGFGPFIITNKHLFRRNNGTLVVQSLHGVFKVKDTTTLQQHLVDGRDMIIIRMPKDFPPFPQKLKFREPQREERICLVTTNFQTKSMSSMVSDTSCTFPSGDGIFWKHWIQTKDGQCGSPLVSTRDGFIVGIHSASNFTNTNNYFTSVPKNFMELLTNQEAQQWVSGWRLNADSVLWGGHKVFMVKPEEPHQPVKEATQL [F226H]	0.0687		0.0597	0.08	0.0672	0.127	0.0344	0.0906	0.0679	0.0995	0.0571	0.0706	0.0804	0.0839	0.111	0.0886	0.0632	0.0526	
MGESLFKGPRDYNPISSSICHLTNESDGHTTSLYGIGFGPFIITNKHLFRRNNGTLVVQSLHGVFKVKDTTTLQQHLVDGRDMIIIRMPKDFPPFPQKLKFREPQREERICLVTTNFQTKSMSSMVSDTSCTFPSGDGIFWKHWIQTKDGQCGSPLVSTRDGFIVGIHSASNFTNTNNYFTSVPKNFMELLTNQEAQQWVSGWRLNADSVLWGGHKVFMVKPEEPMQPVKEATQL [F226M]	0.0857	0.116	0.0708	0.0772	0.0609	0.108	0.0585	0.0728	0.0651	0.0718	0.0671	0.0654		0.0528	0.124	0.0796			
MGESLFKGPRDYNPISSSICHLTNESDGHTTSLYGIGFGPFIITNKHLFRRNNGTLVVQSLHGVFKVKDTTTLQQHLVDGRDMIIIRMPKDFPPFPQKLKFREPQREERICLVTTNFQTKSMSSMVSDTSCTFPSGDGIFWKHWIQTKDGQCGSPLVSTRDGFIVGIHSASNFTNTNNYFTSVPKNFMELLTNQEAQQWVSGWRLNADSVLWGGHKVFMVKPEEPNQPVKEATQL [F226N]	0.0808	0.106		0.0691	0.073	0.147	0.0688	0.0619	0.0616	0.0761	0.0711			0.0984	0.0975	0.0829	0.0783	0.067	0.0927
MGESLFKGPRDYNPISSSICHLTNESDGHTTSLYGIGFGPFIITNKHLFRRNNGTLVVQSLHGVFKVKDTTTLQQHLVDGRDMIIIRMPKDFPPFPQKLKFREPQREERICLVTTNFQTKSMSSMVSDTSCTFPSGDGIFWKHWIQTKDGQCGSPLVSTRDGFIVGIHSASNFTNTNNYFTSVPKNFMELLTNQEAQQWVSGWRLNADSVLWGGHKVFMVKPEEPFQPCKEATQL [V229C]	0.0875	0.102	0.0616	0.0724	0.0696		0.0523	0.096	0.0574	0.0819	0.0664		0.0663		0.136	0.0712		0.0595	0.104
MGESLFKGPRDYNPISSSICHLTNESDGHTTSLYGIGFGPFIITNKHLFRRNNGTLVVQSLHGVFKVKDTTTLQQHLVDGRDMIIIRMPKDFPPFPQKLKFREPQREERICLVTTNFQTKSMSSMVSDTSCTFPSGDGIFWKHWIQTKDGQCGSPLVSTRDGFIVGIHSASNFTNTNNYFTSVPKNFMELLTNQEAQQWVSGWRLNADSVLWGGHKVFMVKPEEPFQPVKCATQL [E231C]	0.0733	0.0748	0.0739	0.0702	0.0762	0.13	0.0616	0.0706	0.0708		0.061	0.063			0.0609	0.0677	0.0692		
MGESLFKGPRDYNPISSSICHLTNESDGHTTSLYGIGFGPFIITNKHLFRRNNGTLVVQSLHGVFKVKDTTTLQQHLVDGRDMIIIRMPKDFPPFPQKLKFREPQREERICLVTTNFQTKSMSSMVSDTSCTFPSGDGIFWKHWIQTKDGQCGSPLVSTRDGFIVGIHSASNFTNTNNYFTSVPKNFMELLTNQEAQQWVSGWRLNADSVLWGGHKVFMVKPEEPFQPVKEATWL [Q234W]	0.0712	0.0793	0.0701	0.0599	0.0663	0.168	0.0306		0.0634	0.0335		0.0608	0.0744		0.112	0.0923	0.0628	0.0651	0.116
MGMSLFKGPRDYNPISSSICHLTNESDGHTTSLYGIGFGPFIITNKHLFRRNNGTLVVQSLHGVFKVKDTTTLQQHLVDGRDMIIIRMPKDFPPFPQKLKFREPQREERICLVTTNFQTKSMSSMVSDTSCTFPSGDGIFWKHWIQTKDGQCGSPLVSTRDGFIVGIHSASNFTNTNNYFTSVPKNFMELLTNQEAQQWVSGWRLNADSVLWGGHKVFMVKPEEPFQPVKEATQL [E3M]		0.117	0.0816	0.0433	0.0744	0.151	0.0626	0.112	0.0736	0.0736	0.0615	0.0658	0.0752		0.137	0.0841		0.0496	0.0843
MGEHLFKGPRDYNPISSSICHLTNESDGHTTSLYGIGFGPFIITNKHLFRRNNGTLVVQSLHGVFKVKDTTTLQQHLVDGRDMIIIRMPKDFPPFPQKLKFREPQREERICLVTTNFQTKSMSSMVSDTSCTFPSGDGIFWKHWIQTKDGQCGSPLVSTRDGFIVGIHSASNFTNTNNYFTSVPKNFMELLTNQEAQQWVSGWRLNADSVLWGGHKVFMVKPEEPFQPVKEATQL [S4H]		0.124	0.0701	0.0454	0.0695		0.0637	0.106	0.0714	0.102	0.0342	0.0575	0.0694	0.0943	0.143	0.09	0.0764	0.0527	0.109
MGESLFKGFRDYNPISSSICHLTNESDGHTTSLYGIGFGPFIITNKHLFRRNNGTLVVQSLHGVFKVKDTTTLQQHLVDGRDMIIIRMPKDFPPFPQKLKFREPQREERICLVTTNFQTKSMSSMVSDTSCTFPSGDGIFWKHWIQTKDGQCGSPLVSTRDGFIVGIHSASNFTNTNNYFTSVPKNFMELLTNQEAQQWVSGWRLNADSVLWGGHKVFMVKPEEPFQPVKEATQL [P9F]		0.0655	0.0685	0.0592	0.0677	0.0603	0.0249	0.0582	0.0667	0.0619		0.0666	0.064		0.0661	0.0549	0.0657	0.0653	0.0686
MGESLFKGPRDYEPISSSICHLTNESDGHTTSLYGIGFGPFIITNKHLFRRNNGTLVVQSLHGVFKVKDTTTLQQHLVDGRDMIIIRMPKDFPPFPQKLKFREPQREERICLVTTNFQTKSMSSMVSDTSCTFPSGDGIFWKHWIQTKDGQCGSPLVSTRDGFIVGIHSASNFTNTNNYFTSVPKNFMELLTNQEAQQWVSGWRLNADSVLWGGHKVFMVKPEEPFQPVKEATQL [N13E]		0.0756	0.0806	0.0405	0.0716	0.0963	0.0628	0.0929	0.0671	0.0722	0.0476	0.0538	0.0555	0.0894		0.0756	0.0758	0.0682	0.103
MGESLFKGPRDYPPISSSICHLTNESDGHTTSLYGIGFGPFIITNKHLFRRNNGTLVVQSLHGVFKVKDTTTLQQHLVDGRDMIIIRMPKDFPPFPQKLKFREPQREERICLVTTNFQTKSMSSMVSDTSCTFPSGDGIFWKHWIQTKDGQCGSPLVSTRDGFIVGIHSASNFTNTNNYFTSVPKNFMELLTNQEAQQWVSGWRLNADSVLWGGHKVFMVKPEEPFQPVKEATQL [N13P]		0.0647	0.0595	0.0636	0.0685	0.118	0.0614	0.0752	0.0704	0.0627	0.0667	0.0621		0.0753	0.116	0.0749	0.0641	0.0643	0.0889
MGESLFKGPRDYNPISSSINHLTNESDGHTTSLYGIGFGPFIITNKHLFRRNNGTLVVQSLHGVFKVKDTTTLQQHLVDGRDMIIIRMPKDFPPFPQKLKFREPQREERICLVTTNFQTKSMSSMVSDTSCTFPSGDGIFWKHWIQTKDGQCGSPLVSTRDGFIVGIHSASNFTNTNNYFTSVPKNFMELLTNQEAQQWVSGWRLNADSVLWGGHKVFMVKPEEPFQPVKEATQL [C20N]		0.075	0.0439	0.0428	0.0445	0.0655	0.0553	0.0695	0.0494	0.0295	0.0564	0.0663	0.0457	0.0536	0.0663			0.0511	
MGESLFKGPRDYNPISSSIQHLTNESDGHTTSLYGIGFGPFIITNKHLFRRNNGTLVVQSLHGVFKVKDTTTLQQHLVDGRDMIIIRMPKDFPPFPQKLKFREPQREERICLVTTNFQTKSMSSMVSDTSCTFPSGDGIFWKHWIQTKDGQCGSPLVSTRDGFIVGIHSASNFTNTNNYFTSVPKNFMELLTNQEAQQWVSGWRLNADSVLWGGHKVFMVKPEEPFQPVKEATQL [C20Q]		0.0583	0.0395	0.0584				0.054	0.049	0.0632	0.0533				0.0428	0.0482		0.0384	
